In PubChem BioAssay AID485294 (National Center for Advancing Translational Sciences (NCATS), 2010):
About 150 (0.041%) of roughly 370,000 compounds were called active. Inconclusive results, whose numbers are uncertain, are shown with a selection of clear calls. The call rests on the fitted dose curve; in most records, active means well fitted inhibition curve with a large enough effect; inconclusive means small, poorly fitted or top-dose-only effect; inactive means flat fitted curve, though single readings scatter. Potencies of inconclusive entries are left out as doubtful fits.

Target: Beta-lactamase (Escherichia coli (strain K12)) (UniProt P00811)
Test: qHTS Inhibitors of AmpC Beta-Lactamase (assay with detergent); further: nearly all actives have a fitted effect of over 25% in size
Conditions: AmpC hydrolysis of nitrocefin, absorbance 480 nm, 0.01% Triton; series mostly up to 114 µM
How it was run: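 20 mM phosphate pH 7.0 + 0.01% (detergent screen) or 0.0001% Triton X-100; 5.3 nM AmpC reagent; cpd preinc 15 min RT; nitrocefin (800 uM stock) to start; A480 q20 s × 4 min; Activity was normalised to no-enzyme and no-compound control wells.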
Potency means the concentration at half of the fitted maximal effect; tags describe the fitted curve by direction and shape.

UniProt P00811, sequence (P00811 whole entry, looked up): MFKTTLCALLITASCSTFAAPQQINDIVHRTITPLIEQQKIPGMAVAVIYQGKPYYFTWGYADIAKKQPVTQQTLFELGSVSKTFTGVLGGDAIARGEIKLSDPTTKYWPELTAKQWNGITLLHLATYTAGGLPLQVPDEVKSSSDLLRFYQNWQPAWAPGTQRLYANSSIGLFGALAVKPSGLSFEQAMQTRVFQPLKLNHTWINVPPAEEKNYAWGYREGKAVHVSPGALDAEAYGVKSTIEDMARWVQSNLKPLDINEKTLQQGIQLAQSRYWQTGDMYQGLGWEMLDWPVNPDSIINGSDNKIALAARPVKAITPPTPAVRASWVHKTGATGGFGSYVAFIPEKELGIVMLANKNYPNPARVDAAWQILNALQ

SMILES	Potency
O=C1Nc2ccccc2C(O)(C(=O)NCc2ccco2)N1c1ccccc1 (stereo not drawn)	inconclusive [inhibitor, full curve, poor fit]
CC(C)C(CCNC1CCN(C)CC1)c1ccc(Cl)cc1 (stereo not drawn)	inactive
Cc1ccc(Cn2c(CN3CC(C)OC(C)C3)nc3c2c(=O)n(C)c(=O)n3C)cc1 (stereo not drawn)	inconclusive [inhibitor, full curve, poor fit]
COc1ccc2oc(C(=O)Nc3nc4ccc(S(C)(=O)=O)cc4s3)c(C)c2c1	inconclusive [inhibitor, full curve]
CCOc1ccc(NC(=O)CSc2nnc(CCNC(=O)c3ccc(OC)cc3)n2C)cc1	inconclusive [inhibitor, full curve, poor fit]
CNC(=O)COc1ccc(Nc2nnc(-c3ccc(C)c(S(N)(=O)=O)c3)c3ccccc23)cc1	inactive
Cc1cccc(-c2noc(CN(C(=O)c3c(-c4ccccc4Cl)noc3C)C(C)C)n2)c1	inconclusive [inhibitor, full curve]
CCSC1=N/C(=C\c2ccc(-c3ccccc3[N+](=O)[O-])o2)C(=O)S1	inactive
CCC(CC)c1nnc(NC(=O)CN2C(=O)NC3(CCCC3)C2=O)s1	inconclusive [inhibitor, single point]
Nc1c(-c2ccccc2)c(CSc2nc3ccccc3[nH]2)nn1-c1cccc(Cl)c1	inconclusive [inhibitor, full curve, poor fit]
Cc1nc2nc(C)n(-c3ccccc3)c2s1	inconclusive [inhibitor, partial curve]
O=[N+]([O-])c1cccc(-c2nc(-c3ccccc3)c(-c3cccs3)[nH]2)c1	inconclusive [inhibitor, partial curve, poor fit]
Cc1nc(NC(=O)c2ccccc2)sc1-c1csc(Nc2cccc(F)c2)n1	inactive
O=C(C1CCN(S(=O)(=O)c2cccc3cccnc23)CC1)N1CCn2c1nc1ccccc12	inconclusive [inhibitor, full curve]
CC(C)(C)C(=O)Cn1ncc(N2CCOCC2)c(Cl)c1=O	inactive
O=C(O)c1ccc(N/N=C/c2c(F)cccc2Cl)cc1	inactive
CCN1C(=O)NC(=O)/C(=C\c2cn(CC(=O)N3CCCCC3)c3ccccc23)C1=O	inconclusive [inhibitor, full curve, poor fit]
CCOP(=S)(OCC)Oc1cc(C)oc(=O)c1Cl	inconclusive [inhibitor, single point]
CC(OC(=O)C(C)N1C(=O)C2C3C=CC(C4CC34)C2C1=O)C(=O)c1ccccc1 (stereo not drawn)	inconclusive [inhibitor, full curve, poor fit]
NC(N)=NC(N)=Nc1cccc(Cl)c1	inactive
CCCCNC(=O)CC1N=C2c3ccccc3N=C(SCC(=O)Nc3ccccc3OC)N2C1=O (stereo not drawn)	inconclusive [inhibitor, full curve]
COc1ccc(C(=O)OCCc2ccc(O)cc2)cc1	inconclusive [inhibitor, full curve, poor fit]
O=C(Nc1ccc(F)cc1)c1sc(Cl)nc1-c1ccccc1	inconclusive [inhibitor, full curve, poor fit]

SMILES	Potency
O=C(Cn1nc(-c2cccc(Cl)c2)ccc1=O)Nc1ccccc1Br	inactive
COc1cc(/C=N/NC(=O)c2cccc([N+](=O)[O-])c2)ccc1O	inactive
CC(C)c1ccc(Nc2c([N+](=O)[O-])c(=O)n(C)c3ccccc23)cc1	inactive
CCc1ccc(/C=C2/Sc3ccccc3N(CC(=O)NCC3CCCO3)C2=O)cc1 (stereo not drawn)	inconclusive [inhibitor, partial curve, poor fit]
Cc1ccc(C)c(SCC(=O)NCC(c2ccco2)N2CCCCC2)c1 (stereo not drawn)	inactive
Cc1cccc2c1N(CCOc1ccc(C(C)(C)C)cc1)C(=O)C2=O	inactive
CCCCOC(=O)c1ccc(NC(=O)c2nn(C)cc2Br)cc1	inconclusive [inhibitor, partial curve]
CC1(OC(=O)C2CCCC2)C(=O)C=C2C=C(c3ccsc3)N(CCCCO)C=C2C1=O (stereo not drawn)	inactive
FC(F)(F)c1cc(C(F)(F)F)n2nc(-c3sccc3-n3cccc3)cc2n1	inconclusive [inhibitor, full curve, poor fit]
COc1cccc(/C=N/n2c(N)c(S(=O)(=O)c3cccs3)c3nc4ccccc4nc32)c1	inactive
COC(=O)c1ccc(NC(=O)Cn2nnc3ccccc32)cc1	inconclusive [inhibitor, full curve, poor fit]
O=C(CCNC(=O)C1CCN(S(=O)(=O)c2ccccc2)CC1)NCc1ccncc1	inactive
CCOC(=O)Cn1cc(/C=C(\C#N)C(=O)N2CCOCC2)c2ccccc21	inactive
Cc1nn(-c2ccc(F)cc2)c2sc(C(=O)OC3CCOC3=O)cc12 (stereo not drawn)	inconclusive [inhibitor, single point]
CC(C)[C@H](NC(=O)OCc1ccccc1)C(=O)OCc1cc(=O)oc2cc(O)ccc12	inconclusive [inhibitor, partial curve, poor fit]
Cn1c(=O)oc2cc(S(=O)(=O)N3CCC(C(=O)N4CCN(c5ccc(F)cc5)CC4)CC3)ccc21	inactive
CCCN(Cc1cc2cc(OC)ccc2[nH]c1=O)C(=O)c1ccncc1	inconclusive [inhibitor, full curve, poor fit]
COc1ccc(-n2c(SCC(=O)Nc3ccc(C(N)=O)cc3)nc3c([nH]c4ccccc43)c2=O)cc1OC	inconclusive [inhibitor, full curve, poor fit]
COc1cc(OC)c(/C=C2\C(=O)Nc3ccccc32)c(OC)c1	inconclusive [inhibitor, full curve, poor fit]
COC(=O)c1ccc(-c2nc3ccccc3[nH]2)cc1	inconclusive [inhibitor, partial curve]
C=CCCC(=O)NC1CCCc2c1cnn2-c1ccccc1F (stereo not drawn)	inconclusive [inhibitor, full curve, poor fit]
CCOc1ccccc1CNc1ncnc2ccc(-c3c(C)noc3C)cc12	inconclusive [inhibitor, full curve]
O=C(CCN1C(=O)/C(=C/c2ccccc2F)SC1=S)NCCc1ccc(O)cc1	inactive

SMILES	Potency
Cc1cc2cc(CNC(=O)Nc3ccccc3)ccc2n1C	inconclusive [inhibitor, full curve]
COc1ccc2cc(C=O)n(C)c2c1	inactive
CC(=O)c1cccc(NC(=O)c2noc3c2CCCC3)c1	inactive
O=C1CCCC(c2ccccc2)N1 (stereo not drawn)	inconclusive [inhibitor, full curve]
O=C(CCCCCCCC(=O)c1ccccc1)c1ccccc1	inconclusive [inhibitor, full curve, poor fit]
Cc1ccc2c(C)c(C(=O)Nc3c(C)n(C)n(-c4ccccc4)c3=O)oc2c1	inconclusive [inhibitor, full curve, poor fit]
O=C(NCC1CCCO1)c1cccc(-n2cnnn2)c1 (stereo not drawn)	inconclusive [inhibitor, full curve, poor fit]
COc1cccc(N2C(=O)CC(Sc3nc(C)cc(C)n3)C2=O)c1 (stereo not drawn)	inconclusive [inhibitor, full curve, poor fit]
N#CCOC(=O)C1CSC2(c3ccc(Br)cc3)CCC(=O)N12 (stereo not drawn)	inconclusive [inhibitor, partial curve, poor fit]
CCN(CC)S(=O)(=O)c1ccc(C(=O)N2CCN(CCN3C(=O)c4cccc5cccc(c45)C3=O)CC2)cc1	inactive
O=C(NC1CCCC1)C(c1ccncc1)N(C(=O)c1csnn1)c1ccc(Cl)cc1 (stereo not drawn)	inconclusive [inhibitor, partial curve, poor fit]
CCC(=O)NCCc1cc2ccc(C)cc2[nH]c1=O	inconclusive [inhibitor, full curve, poor fit]
Cc1ccc(SCC(=O)N2CCCC2)cc1	inconclusive [inhibitor, full curve]
O=C(Nc1ccc(F)c(F)c1)C1=COCCO1	inconclusive [inhibitor, full curve, poor fit]
O=C(Nc1ccccn1)c1ccc(Br)c(S(=O)(=O)N2CCCC2)c1	inconclusive [inhibitor, full curve, poor fit]
CCOc1ccc(NC(=O)Cn2cc(C(=O)c3ccco3)c3ccccc32)cc1	inactive
COc1ccc(NC(=O)CSc2nc(NS(=O)(=O)c3ccccc3)cc(=O)[nH]2)cc1	inconclusive [inhibitor, full curve, poor fit]
Cc1noc(C)c1COC(=O)CN(C)S(=O)(=O)c1ccc(Cl)cc1	inconclusive [inhibitor, full curve, poor fit]
COc1ccccc1Nc1nc(N)nc(CSc2nncn2C)n1	inactive
CCOC(=O)Cc1ncccc1C(=O)Nc1ccc(OC(F)(F)F)cc1	inconclusive [inhibitor, full curve, poor fit]
CCN(CC)S(=O)(=O)c1ccc(-c2nnc(SCC(=O)Nc3cc(OC)cc(OC)c3)o2)cc1	inconclusive [inhibitor, single point]
Cc1nnc(NC2=NCCCCC2)o1	inconclusive [inhibitor, partial curve, poor fit]
